{"source": "the CheMixHub viscosity set", "details": "298.15 K; 101.33 kPa", "note": "± gives the uncertainty stated by the source. A number of entries come with more than one value. They are shown here; other results are not. The source may hold further records. Values that stand side by side are repeats across runs, samples, wells, individuals or studies.", "data": [{"smiles": "CC(Cl)(Cl)Cl", "values": [{"measurement": "viscosity", "result": "0.7917 ± 0.0077 mPa·s, 0.7956 ± 0.0077 mPa·s, 0.7923 ± 0.0077 mPa·s, 0.7912 ± 0.0077 mPa·s, 0.7918 ± 0.0077 mPa·s"}]}]}
